In US20260132178A1 (SYNERKINE PHARMA B V, published 2026):

Key:
Assay in all cases: cell-based or functional assay
[1] = target: T1, IL10 receptor (UniProt Q13651 22-578; Q08334 20-325, limits assumed)
T1 sequence (looked up) 1: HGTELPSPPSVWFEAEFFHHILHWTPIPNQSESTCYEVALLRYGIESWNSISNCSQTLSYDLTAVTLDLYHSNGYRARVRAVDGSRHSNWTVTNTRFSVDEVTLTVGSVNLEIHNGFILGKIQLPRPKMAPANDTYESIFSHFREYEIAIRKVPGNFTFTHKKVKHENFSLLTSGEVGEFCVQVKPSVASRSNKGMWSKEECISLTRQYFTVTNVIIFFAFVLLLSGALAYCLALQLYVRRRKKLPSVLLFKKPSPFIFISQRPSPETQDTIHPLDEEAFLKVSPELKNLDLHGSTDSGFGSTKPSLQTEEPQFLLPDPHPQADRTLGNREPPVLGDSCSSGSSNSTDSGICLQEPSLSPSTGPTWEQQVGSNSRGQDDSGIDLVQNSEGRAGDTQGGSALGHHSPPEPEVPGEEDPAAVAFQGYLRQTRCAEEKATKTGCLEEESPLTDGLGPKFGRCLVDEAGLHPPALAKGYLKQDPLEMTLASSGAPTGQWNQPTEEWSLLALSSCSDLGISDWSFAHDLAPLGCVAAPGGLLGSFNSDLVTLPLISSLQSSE
T1 sequence (looked up) 2: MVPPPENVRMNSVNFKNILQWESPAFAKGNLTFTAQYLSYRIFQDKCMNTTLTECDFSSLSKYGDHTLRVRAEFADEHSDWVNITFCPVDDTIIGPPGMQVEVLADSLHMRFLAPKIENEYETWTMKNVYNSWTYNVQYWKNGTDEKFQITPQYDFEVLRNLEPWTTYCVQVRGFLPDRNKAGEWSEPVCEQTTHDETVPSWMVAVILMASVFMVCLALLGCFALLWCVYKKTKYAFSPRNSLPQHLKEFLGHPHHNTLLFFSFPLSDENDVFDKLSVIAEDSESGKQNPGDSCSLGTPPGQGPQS

[2] = target: hIL10RA/hIL13Ra1 (human, UniProt Q13651 22-256; P78552 22-367)
[3] = target: hIL10RA/hIL13Ra2 (human, UniProt Q13651 22-256; Q14627 27-363)

Chain of hIL10RA/hIL13Ra2 (Q14627 27-363): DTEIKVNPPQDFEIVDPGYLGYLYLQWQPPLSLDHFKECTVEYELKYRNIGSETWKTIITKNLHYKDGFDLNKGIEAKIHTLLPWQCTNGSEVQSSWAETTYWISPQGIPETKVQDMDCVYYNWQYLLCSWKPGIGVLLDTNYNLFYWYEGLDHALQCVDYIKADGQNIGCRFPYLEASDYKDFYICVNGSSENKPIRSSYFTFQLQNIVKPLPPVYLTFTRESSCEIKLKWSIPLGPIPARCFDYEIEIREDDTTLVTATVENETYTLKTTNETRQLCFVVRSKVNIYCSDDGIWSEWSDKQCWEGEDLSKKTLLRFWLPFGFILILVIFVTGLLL
Chain of hIL10RA/hIL13Ra1 (P78552 22-367): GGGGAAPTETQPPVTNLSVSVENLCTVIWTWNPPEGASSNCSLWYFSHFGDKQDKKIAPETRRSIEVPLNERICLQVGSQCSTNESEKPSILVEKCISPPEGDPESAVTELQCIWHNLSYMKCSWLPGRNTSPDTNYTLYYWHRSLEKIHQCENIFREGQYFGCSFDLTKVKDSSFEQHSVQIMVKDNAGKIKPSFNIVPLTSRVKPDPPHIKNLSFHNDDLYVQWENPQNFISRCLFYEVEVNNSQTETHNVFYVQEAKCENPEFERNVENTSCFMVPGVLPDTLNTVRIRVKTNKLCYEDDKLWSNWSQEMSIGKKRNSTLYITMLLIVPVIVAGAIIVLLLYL

B1: IL10M-Fc (J) (Fc fusion)
chain: SPGQGTQSENSCTHFPGNLPNMLRDLRDAFSRVKTFFQMKDQLDNLLLKESLLEDFKGYLGCQALSEMIQFYLEEVMPQAENQDPDIKAHVNSLGENLKTLRLRLRRCHRFLPCENGGGSGGKSKAVEQVKNAFNKLQEKGIYKAMSEFDIFINYIEAYMTMKIRNGSGGGGSG[sequence of human IgG1 Fc with changes not given]
For B1, the “HEK-Blue IL10 EC50 (STAT-3 mediated SEAP expression)” value (“HEK-Blue IL10 EC50” below) [1] was 0.0808 nM.

B2: IL4-10M Fc (J) (Fc fusion)
chain 1: HKCDITLQEIIKTLNSLTEQKTLCTELTVTDIFAASKNTTEKETFCRAATVLRQFYSHHEKDTRCLGATAQQFHRHKQLIRFLKRLDRNLWGLAGLNSCPVKEANQSTLENFLERLKTIMREKYSKCSSGSGGGGSGTCPPCPAPELLGGPSVFLFPPKPKDTLMISRTPEVTCVVVDVSHEDPEVKFNWYVDGVEVHNAKTKPREEQYNSTYRVVSVLTVLHQDWLNGKEYKCKVSNKALPAPIEKTISKAKGQPREPQVCTLPPSRDELTKNQVSLSCAVKGFYPSDIAVEWESNGQPENNYKTTPPVLDSDGSFFLVSKLTVDKSRWQQGNVFSCSVMHEALHNHYTQKSLSLSPGK
chain 2: SPGQGTQSENSCTHFPGNLPNMLRDLRDAFSRVKTFFQMKDQLDNLLLKESLLEDFKGYLGCQALSEMIQFYLEEVMPQAENQDPDIKAHVNSLGENLKTLRLRLRRCHRFLPCENGGGSGGKSKAVEQVKNAFNKLQEKGIYKAMSEFDIFINYIEAYMTMKIRNGSGGGGSG[sequence of human IgG1 Fc with changes not given]
For B2, the “HEK-Blue IL10 EC50” value [1] was 0.544 nM.

B3: IL4-10M Fc (S) (Fc fusion)
chain 1: B2 chain 1
chain 2: KSKAVEQVKNAFNKLQEKGIYKAMSEFDIFINYIEAYMTMKIRNGSGGGGSGTSPGQGTQSENSCTHFPGNLPNMLRDLRDAFSRVKTFFQMKDQLDNLLLKESLLEDFKGYLGCQALSEMIQFYLEEVMPQAENQDPDIKAHVNSLGENLKTLRLRLRRCHRFLPCENGSGGGGSG[sequence of human IgG1 Fc with changes not given]
With B3 the “HEK-Blue IL10 EC50” value [1] was 0.265 nM.

B4: IL13-10M Fc (J) (Fc fusion)
chain 1: [sequence of about 120 residues not given][sequence of about 250 residues not given]
chain 2: SPGQGTQSENSCTHFPGNLPNMLRDLRDAFSRVKTFFQMKDQLDNLLLKESLLEDFKGYLGCQALSEMIQFYLEEVMPQAENQDPDIKAHVNSLGENLKTLRLRLRRCHRFLPCENGGGSGGKSKAVEQVKNAFNKLQEKGIYKAMSEFDIFINYIEAYMTMKIRNTGSGGGGSGTCPPCPAPEAAGGPSVFLFPPKPKDTLMISRTPEVTCVVVDVSHEDPEVKFNWYVDGVEVHNAKTKPREEQYNSTYRVVSVLTVLHQDWLNGKEYKCKVSNKALPAPIEKTISKAKGQPREPQVYTLPPSRDELTKNQVSLTCLVKGFYPSDIAVEWESNGQPENNYDTTPPVLDSDGSFFLYSDLTVDKSRWQQGNVFSCSVMHEALHNHYTQKSLSLSPGK
For B4, the “Heterologous clustering hIL10RA/hIL13Ra1 EC50 (NanoBiT enzyme complementation)” value [2] was 13900 pM and the “Heterologous clustering hIL10RA/hIL13Ra2 EC50 (NanoBiT enzyme complementation)” value [3] was 1490 pM.
